Test results reported in paper PMC4336329 (PLoS ONE, 2015).
Among all 310,000 compounds or so, about 2,200 (0.71%) showed an effect of 50% or more. Effects have a minus sign here. The list shows a part of the results.

molecular target: human ether-à-go-go-related gene (hERG) potassium channel (human, UniProt Q12809); test: primary screen, population patch clamp on CHO cells stably expressing hERG
Sequence (Q12809 whole entry, looked up): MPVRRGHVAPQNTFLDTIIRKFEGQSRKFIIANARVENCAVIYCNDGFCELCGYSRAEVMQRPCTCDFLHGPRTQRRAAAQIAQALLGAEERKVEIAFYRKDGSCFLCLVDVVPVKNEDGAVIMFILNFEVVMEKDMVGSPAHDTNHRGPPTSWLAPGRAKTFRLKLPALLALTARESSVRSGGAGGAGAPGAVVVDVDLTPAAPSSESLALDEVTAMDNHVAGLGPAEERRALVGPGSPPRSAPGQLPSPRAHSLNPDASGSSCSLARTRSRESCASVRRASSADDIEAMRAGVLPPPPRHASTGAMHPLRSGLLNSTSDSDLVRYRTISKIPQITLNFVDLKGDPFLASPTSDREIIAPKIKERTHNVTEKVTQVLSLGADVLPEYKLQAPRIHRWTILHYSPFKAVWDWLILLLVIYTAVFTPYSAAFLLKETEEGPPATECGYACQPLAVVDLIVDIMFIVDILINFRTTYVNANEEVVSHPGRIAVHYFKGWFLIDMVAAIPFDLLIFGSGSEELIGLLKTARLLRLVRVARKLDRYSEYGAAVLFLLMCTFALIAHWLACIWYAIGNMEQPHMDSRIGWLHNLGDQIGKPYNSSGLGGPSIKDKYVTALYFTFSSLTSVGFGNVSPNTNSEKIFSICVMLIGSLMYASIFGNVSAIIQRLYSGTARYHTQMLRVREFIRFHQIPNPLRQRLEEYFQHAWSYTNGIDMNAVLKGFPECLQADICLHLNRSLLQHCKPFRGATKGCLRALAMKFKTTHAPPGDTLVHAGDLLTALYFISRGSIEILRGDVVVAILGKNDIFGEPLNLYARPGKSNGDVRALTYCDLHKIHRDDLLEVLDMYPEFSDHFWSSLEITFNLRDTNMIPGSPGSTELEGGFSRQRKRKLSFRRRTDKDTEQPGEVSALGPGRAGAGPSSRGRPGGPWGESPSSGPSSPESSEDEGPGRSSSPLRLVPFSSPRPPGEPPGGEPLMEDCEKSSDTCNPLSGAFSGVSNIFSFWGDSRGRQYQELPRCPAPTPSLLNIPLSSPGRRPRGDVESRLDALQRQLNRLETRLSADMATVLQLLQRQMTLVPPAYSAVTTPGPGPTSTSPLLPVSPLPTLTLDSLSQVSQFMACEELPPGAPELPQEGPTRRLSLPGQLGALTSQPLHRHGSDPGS

Compound | hERG current change (%, negative = inhibition) at 1uM [%]
CCOC(=O)C(Sc1ncn[nH]1)c1ccccc1 (centres unmarked) | 4.36
CCN1C(=O)[C@H]2[C@@H](c3ccc(OC)cc3)N3C(=O)CN(Cc4ccccc4)C(=O)[C@@]3(C)[C@H]2C1=O | 13.6
CCOC(=O)C(C(C)=O)c1c(Br)c(O)c(O)c2c(C(=O)c3ccc(C)cc3)coc12 (centres unmarked) | 5.34
O=C(CC(Sc1ccc(Br)cc1)C(=O)O)c1ccc(F)cc1 (centres unmarked) | 15.8
CCc1nc(C)ccc1OCC(=O)N(CC)CC.O.O=C(O)C(=O)O | -8.43
CCOc1ccc2nc(-c3cc(NC(C)=O)ccc3O)sc2c1 | 17.8
CN(C)C(CNC(=O)CN1C(=O)NC2(CCCC2)C1=O)c1ccccc1 (centres unmarked) | 3.06
Cc1cccc([C@@H]2[C@@H]3C(=O)N(Cc4ccccc4)C(=O)[C@@H]3[C@]3(CC(C)C)C(=O)N(c4cccc(F)c4)C(=O)N23)c1 | 8
O=C(Nc1ccc(Cl)c(S(=O)(=O)N2CCCCC2)c1)c1cccnc1 | 2.84
CCOC(=O)c1cc2c(=O)n3ccccc3nc2n(CCCOC)c1=NC(=O)C(C)(C)C | 8.87
N#CC1=C(c2ccc(-c3ccccc3)cc2)COC1=O | 5.25
CCN(CC)S(=O)(=O)c1cc(C(=O)OCC(=O)NC2CCCc3ccccc32)ccc1C (centres unmarked) | -9
COC(=O)CN(c1nc(C)c(Br)c(OC)n1)S(=O)(=O)c1ccccc1 | 13.6
Cc1c(CCO)c(=O)[nH]n1S(=O)(=O)c1ccc(Cl)cc1Cl | -0.58
CCCNC(=O)CN1C(=O)NC(CCc2ccccc2)C1=O (centres unmarked) | 19
CC(C)CCOP(=O)(c1ccc(N(C)C)cc1)C(O)c1ccccn1 (centres unmarked) | 7.4
Cc1ccc(-n2c(C)cc(/C=C3\C(=O)NC(=O)N(C)C3=O)c2C)cc1C | 6.74
Cc1ccc(S(=O)(=O)Cc2ccc(C(=O)NCc3cccs3)o2)cc1 | 3.53
COCCCNc1nc2ccccc2nc1NS(=O)(=O)c1cc(Cl)ccc1Cl | 12.5
Cc1cccc(OCCCC(=O)Nc2ccc(S(N)(=O)=O)cc2)c1C | 12.3
Cn1sc(NC(=O)c2ccccc2)nc1=O | -4.07
CCn1c(C(C)NC(=O)c2cccc(C)c2)n[nH]c1=S (centres unmarked) | -36.9

Compound | hERG current change (%, negative = inhibition) at 1uM [%]
O=C(COC(=O)c1ccc(S(=O)(=O)N2CCCC2)cc1)NCc1cccs1 | -17.6
COc1ccccc1NC(=O)/C(C#N)=C/c1c(C)nn(-c2ccc(F)cc2)c1Cl | 8.75
CCOC(=O)n1c(=O)n(Cc2ccccc2)c2ccccc21 | 6.17
CC1CCC(NS(=O)(=O)c2ccc3c(c2)n(C)c(=O)c(=O)n3C)CC1 (centres unmarked) | -24.4
O=C(O)CSc1ncccn1 | 13.4
O=C(NCc1ccncc1)C(=O)Nc1ccc2c(c1)OCO2 | 4.99
O=C(NCCc1c[nH]c2ccccc12)C(=O)NCC1OCCN1S(=O)(=O)c1ccccc1 (centres unmarked) | 11.8
Cc1ccc(NC(=O)C2CCCN(S(=O)(=O)c3ccc4[nH]c(=O)ccc4c3)C2)cc1C (centres unmarked) | -0.277
COc1ccc(CCNC(=O)CSc2nnc(CNC(=O)c3cc(OC)c(OC)c(OC)c3)o2)cc1OC | 21.1
N#CC1=C(N2CCCCC2)c2cc3c(n2C1=O)CCCC3 | 0.989
O=C(c1cc(-c2ccccc2)on1)N1CCN(C(=O)c2ccco2)CC1 | -8.13
COc1ccc(C)cc1Nc1nc(-c2ccccc2O)nc2ccccc12 | 12.4
CN(C)c1nc(Oc2ccc(C(=O)OCC(=O)Nc3ccccc3)cc2)nc(N(C)C)n1 | 3.61
CC1=C(C(N)=O)C(c2ccccn2)n2nc(SCc3ccccc3Cl)nc2N1 (centres unmarked) | 15.1
CCCCCOc1ccc(C2C(C(=O)c3ccc(C)o3)=C(O)C(=O)N2c2cc(C)on2)cc1 (centres unmarked) | 14.1
COc1ccc(CN(C(=O)c2nsc(Cl)c2Cl)C(C(=O)NC2CCCCC2)c2ccc(OC)cc2)cc1 (centres unmarked) | 1.89
O=C(Cc1ccc(Cl)cc1)NCC(=O)N1CCN(c2ccccc2)CC1 | 1.77
CCN(CC)c1ccc(CNc2ccc(Br)cn2)cc1 | 14.6
CC1CCN(C(c2ccc(N(C)C)cc2)c2nnnn2C(C)(C)C)CC1 (centres unmarked) | 7.16
CC(C)Nc1nc(Oc2ccc(Cl)cc2)cc(C(F)(F)F)n1 | 0.609
c1ccc(CCC2CCCCN2Cc2nc(-c3ccc4c(c3)OCO4)no2)nc1 (centres unmarked) | -0.47
CC(C)Cn1c(N)c(C(=O)CSc2nncs2)c(=O)n(C)c1=O | 3.51

Compound | hERG current change (%, negative = inhibition) at 1uM [%]
O=C(Nc1ccc(N2CCN(C(=O)c3ccc(Cl)cc3)CC2)cc1)c1cccs1 | 3.32
Cc1ccsc1C(=O)C1CCCN(CCO)C1 (centres unmarked) | 16.7
Cc1ccc(CNC(=O)CCCNS(=O)(=O)c2cccc3nonc23)cc1 | 13.5
Cc1nn2c(-n3ccnc3)c3c(nc2c1-c1ccccc1)CCC3 | -3.82
COc1ccc(C2CC(c3ccc4ccccc4c3OC(C)=O)=NN2C(C)=O)cc1 (centres unmarked) | 9.2
COc1ccc(C(C(=O)NC2CCCC2)N(CCO)C(=O)Cn2nnc(-c3ccc(C)o3)n2)cc1OC (centres unmarked) | 13.3
COc1cccc(CC(NC(C)=O)C(=O)NC2CCN(c3c(Cc4ccccc4)c(C)nc4ncnn34)CC2)c1 (centres unmarked) | 9.51
O=C(Nc1ccc2c(c1)ncn2-c1ccccc1)c1ccco1 | 2.94
CC(=O)c1ccc(S(=O)(=O)NCCc2cn3ccc(C)cc3n2)cc1 | -3.96
Nc1nccc(-c2ccc(-n3cnc4ccccc43)cc2)n1 | 2.67
COc1ccc(OCC(=O)Nc2ccc3c(c2)nc(CCN2CCOCC2)n3C)cc1 | 1.26
O=C(COc1ccccc1Cl)NCCCNC(=O)c1ccco1 | 10.8
CCOc1ccc(C(C)=O)cc1Cn1nc(C(=O)O)c2ccccc2c1=O | 7.4
COc1ccc(-c2csc(NC(C)c3nc4cc(C(F)(F)F)ccc4n3CCOCCO)n2)cc1 (centres unmarked) | 8.61
Cc1ccccc1S(=O)(=O)c1cc(C#N)c(=O)[nH]c1N | 12.7
COc1cc(NC(=O)c2ccccc2F)c(OC)cc1NC(=O)CN1CCOCC1.Cl | 1.06
O=C(O)CCN1C(=O)c2ccncc2C1=O | -0.481
O=C(NCc1ccc2c(c1)OCO2)C1CCCN(S(=O)(=O)c2cccc3nonc23)C1 (centres unmarked) | 2.31
CN(C)/C=N/NC(=O)c1ccccc1Cl | 15.3
O=C(CCc1nc(-c2ccccc2)no1)NC1CCCCCC1 | 7.67
CC(OC(=O)CCC(=O)N1CCN(S(=O)(=O)c2ccc3ccccc3c2)CC1)C(=O)NC(N)=O (centres unmarked) | 0.435
CC(=O)c1cccc(NC(=S)NC(=O)c2ccc(C)cc2Cl)c1 | 10.9

Compound | hERG current change (%, negative = inhibition) at 1uM [%]
S=C(NCC(c1ccco1)N1CCCC1)Nc1ccccc1 (centres unmarked) | 14
CCCc1cc(C(=O)N2CCCC(C(=O)c3cc(C)c(OC)c(C)c3)C2)n(C)n1 (centres unmarked) | -5.97
Cc1onc(C(=O)N2CCC(C(N)=O)CC2)c1-c1ccccc1Cl | 14.7
CCC1CCCCN1CCCNC(=O)CSc1nc2nc(C)c(Cc3ccccc3)c(C)n2n1 (centres unmarked) | -13.2
O=C(CSc1nc2[nH]ncc2c(=O)n1-c1ccccc1Br)NCc1ccccc1Cl | -5.9
Cc1noc(C)c1S(=O)(=O)Nc1ccccc1Cl | 14.9
O=C(Nc1cccc(S(=O)(=O)c2cccc(NC(=O)C3CC3)c2)c1)C1CC1 | 13.2
CCN(CC)C(=O)C1CCN(C(=O)c2oc3ccc(C)cc3c2C)CC1 | 6.87
Cc1cccc(CSc2nnc(Cn3c(=O)sc4ccccc43)n2C)c1 | -15.2
O=C(CSc1n[nH]c(-c2cccs2)n1)NCc1cccs1 | 0.801
COC(=O)c1sc2nc(SCc3cccc(Cl)c3)n(N)c(=O)c2c1C | 6.47
CCOC(=O)N1CCN(C/C(Cl)=C/c2ccccc2)CC1 | 10.2
COc1ccccc1C(=O)NN=C1CCN(Cc2ccccc2)CC1 | 5.41
Cc1cccc(C(=O)OCC(=O)NC(=O)c2ccccc2)c1O | 16.9
Cc1ccc(NS(=O)(=O)Cc2ccccc2)cc1Cl | 12.5
COC(=O)C1=C(C)NC2=C(C(=O)CC(C)(C)C2)C1c1cccc(C)n1 (centres unmarked) | 15.2
CCSc1nnc(NC(=O)c2nc(S(=O)(=O)Cc3ccc(F)cc3)ncc2Cl)s1 | 11.8
COc1ccc(/C=C/C(=O)NCCn2c(C)cc3ccccc32)cc1OC | 12.1
Cc1ccc(N2CC(C(=O)NCc3ccccn3)CC2=O)cc1 (centres unmarked) | 4.34
COC(=O)CC1=C(C(=O)OC)C(c2cccs2)C(C#N)=C(N)O1 (centres unmarked) | 7.67
